Measured values published in PubChem BioAssay (Tox21).
The inconclusive results got no clear call from the source; some entries with a clear call stand among them for comparison. For part of these data: No potency is given beside an inconclusive call; the fits are too rough. Calls of active or inactive are those of the source. Unless noted, calls follow the shape of the dose curve; as a rule, active = well fitted curve in the direction sought with a large enough effect in the repeat runs; inconclusive = weak or mixed curves; inactive = no such curve, though single readings can be large; an effect the other way counts as inactive or inconclusive.

Columns and labels:
[1] = A CellTox Green Cytotoxicity Assay to monitor cytotoxicity in HepG2 cells - 24 hour (AID 1224878); also: nearly all actives have a fitted effect of over 45% in size; also: potency is read from the fitted curve at half-maximal effect
Method in brief: (§1)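 Read-out is fluorescence of a cyanine dye excluded from live cells that stains DNA of dead HepG2 cells, with signal proportional to cytotoxicity. Plates were read at 0, 8, 16, 24, 32 and 40 h after compound addition.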

[2] = A CellTox Green Cytotoxicity Assay to monitor cytotoxicity in HepG2 cells - 32 hour (AID 1224883); also: potency is read from the fitted curve at half-maximal effect; nearly all actives have a fitted effect of over 50% in size
Method in brief: as §1

[3] = qHTS RealTime-Glo MT Cell Viability Assay in HEK293 cells - 24 hour (AID 1224886); also: potency is read from the fitted curve at half-maximal effect; nearly all actives have a fitted effect of over 50% in size
Method in brief: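 Cells + reagent dispensed (600 cells/well, HEK293) → 5 h at 37 C/5% CO2 → 23 nL compound in DMSO pinned → 40 h at 37 C → luminescence read at 0, 8, 16, 24, 32, 40 h.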

[4] = A CellTox Green Cytotoxicity Assay to monitor cytotoxicity in HepG2 cells - 40 hour (AID 1224879); also: potency is read from the fitted curve at half-maximal effect; nearly all actives have a fitted effect of over 40% in size
Method in brief: as §1

[5] = target: Estrogen receptor (Homo sapiens) (UniProt P03372); assay: qHTS assay to identify small molecule antagonists of the estrogen receptor alpha (ER-alpha) signaling pathway using the BG1 cell line in the presence of 0.1 nM 17-beta-estradiol (AID 1259244); also: potency is read from the fitted curve at half-maximal effect; nearly all actives have a fitted effect of over 50% in size
Sequence of UniProt P03372 (P03372 whole entry, looked up): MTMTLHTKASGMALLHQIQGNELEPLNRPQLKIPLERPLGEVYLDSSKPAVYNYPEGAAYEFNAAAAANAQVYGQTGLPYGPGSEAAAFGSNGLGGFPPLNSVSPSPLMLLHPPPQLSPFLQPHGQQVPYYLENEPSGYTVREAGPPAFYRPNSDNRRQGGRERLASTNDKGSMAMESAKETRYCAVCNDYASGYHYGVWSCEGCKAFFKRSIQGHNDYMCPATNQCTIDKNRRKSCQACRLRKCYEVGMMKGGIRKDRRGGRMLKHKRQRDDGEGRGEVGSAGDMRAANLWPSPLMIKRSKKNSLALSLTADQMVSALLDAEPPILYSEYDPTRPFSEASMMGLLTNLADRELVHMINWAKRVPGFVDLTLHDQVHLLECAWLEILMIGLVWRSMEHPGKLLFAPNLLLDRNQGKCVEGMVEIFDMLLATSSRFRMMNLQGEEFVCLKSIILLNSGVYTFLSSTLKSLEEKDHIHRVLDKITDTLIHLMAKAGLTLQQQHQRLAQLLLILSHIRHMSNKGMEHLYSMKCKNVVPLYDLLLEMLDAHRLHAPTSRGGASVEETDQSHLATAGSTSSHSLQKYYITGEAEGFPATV
Method in brief: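 Cells: VM7Luc4E2, endogenous ER-alpha, 4x ERE-luc stable. Pre-culture 5 d, phenol red-free, charcoal-stripped FBS. Plated 24 h, compound + E2 0.1 nM final, 22 h 37C/5% CO2. Readout ONE-Glo luminescence.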

[6] = A CellTox Green Cytotoxicity Assay to monitor cytotoxicity in HEK293 cells - 8 hour (AID 1224884); also: potency is read from the fitted curve at half-maximal effect; nearly all actives have a fitted effect of over 35% in size
Method in brief: (§2)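 Nonlytic real-time cytotoxicity: HEK293 + CellTox Green reagent plated, 5 h preincubation, pintool compound addition (23 nL in DMSO), 37 C for 40 h, fluorescence measured at successive time points.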

[7] = qHTS RealTime-Glo MT Cell Viability Assay in HepG2 cells - 0 hour (AID 1224889); also: potency is read from the fitted curve at half-maximal effect; nearly all actives have a fitted effect of over 50% in size
Method in brief: (§3)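 Real-time, nonlytic viability: 600 HepG2 cells/well mixed with NanoLuc enzyme plus prosubstrate; 5 h settle, compound (DMSO) added by pintool; luminescence monitored over 40 h at 37 C.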

[8] = A CellTox Green Cytotoxicity Assay to monitor cytotoxicity in HEK293 cells - 32 hour (AID 1224881); also: nearly all actives have a fitted effect of over 40% in size; also: potency is read from the fitted curve at half-maximal effect
Method in brief: as §2

[9] = qHTS assay to identify small molecule phospholipidosis (PLD) inducers (AID 1259344; active = well fitted curve in the direction sought with a large enough effect; inconclusive = small, poorly fitted or top-dose-only effect, or another doubt; inactive = no such curve, though single readings can be large; an effect the other way counts as inactive or inconclusive)
Method in brief: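 HepG2 cells on collagen I, attached 4 h at 37 C, were co-treated with compound and LipidTOX Red dye for 24 h at 37 C, then fixed with paraformaldehyde plus Hoechst 33342 and imaged by high-content microscopy for phospholipid accumulation.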

[10] = qHTS RealTime-Glo MT Cell Viability Assay in HepG2 cells - 16 hour (AID 1224885); also: nearly all actives have a fitted effect of over 50% in size
Method in brief: as §3
Tags tell the direction and shape of the fitted curve.

## C[C@]12CC[C@H]3[C@@H](CC[C@@]45O[C@@H]4C(O)=C(C#N)C[C@]35C)[C@@H]1CC[C@@H]2O
[1]
  Potency: inconclusive [activator, partial curve, poor fit]
[2]
  Potency: inconclusive [activator, partial curve, poor fit]
[3]
  Potency: inconclusive [rising, partial curve]

## CN(C)P(=O)(N(C)C)N(C)C
[1]
  Potency: inconclusive [activator, single point]
[4]
  Potency: inconclusive [activator, single point]
[2]
  Potency: inconclusive [activator, single point]
[5]
  Potency: inconclusive [inhibitor, single point]

## O=S(=O)(C(Cl)(Cl)Cl)C(Cl)(Cl)Cl
[1]
  Potency: active: 27.5 µM
[2]
  Potency: active: 24.5 µM
[6]
  Potency: active: 24.5 µM
[3]
  Potency: active: 11 µM
[7]
  Potency: inconclusive [cytotoxic, partial curve, poor fit]
[5]
  Potency: active: 27.3 µM

## CCC(=O)OC1(c2ccccc2)CCN(C)CC1
[1]
  Potency: inactive
[8]
  Potency: inactive
[9]
  Potency: inactive

## CC[C@H]1C[C@H]2[C@@H]3CCC4=CC(=O)CC[C@@H]4[C@H]3CC[C@]2(C)[C@H]1O
[1]
  Potency: inconclusive [activator, single point]
[8]
  Potency: inconclusive [activator, single point]
[2]
  Potency: inconclusive [activator, partial curve]
[10]
  Potency: inactive
[3]
  Potency: inconclusive [cytotoxic, single point]
